In PubChem BioAssay AID588342 (National Center for Advancing Translational Sciences (NCATS), 2011):
The whole screen tested about 360,000 compounds, of which about 25,000 (6.9%) were called active. Inconclusive results, whose numbers are uncertain, are shown with a selection of clear calls. The call rests on the fitted dose curve; in most records, active means well fitted inhibition curve with a large enough effect; inconclusive means small, poorly fitted or top-dose-only effect; inactive means flat fitted curve, though single readings scatter. Potencies of inconclusive entries are doubtful fits and often do not repeat.

What follows are compounds tested against Luciferin 4-monooxygenase (Photinus pyralis) (UniProt P08659) (assay: qHTS profiling assay for firefly luciferase inhibitor/activator using purifed enzyme and Km concentrations of substrates (counterscreen for miR-21 project)). Settings: purified FLuc, luminescence inhibition; activity change, negative = inhibition: at 57.5 µM (top of the series).
Summary of the method: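 Purified P. pyralis luciferase, 10 nM final, with Km-level 10 uM D-luciferin and 10 uM ATP in 50 mM Tris acetate pH 7.5, 10 mM Mg acetate, 0.01% Tween-20, 0.05% BSA; 6-point qHTS titration about 60 µM downward; luminescence read.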
Further: nearly all actives have a fitted effect of over 55% in size.
Potency means the concentration at half of the fitted maximal effect; tags describe the fitted curve by direction and shape.
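Wherever activity change, negative = inhibition is given: plate controls were vehicle for no effect and reference inhibitor for full effect.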

Sequence of UniProt P08659 (P08659 whole entry, looked up): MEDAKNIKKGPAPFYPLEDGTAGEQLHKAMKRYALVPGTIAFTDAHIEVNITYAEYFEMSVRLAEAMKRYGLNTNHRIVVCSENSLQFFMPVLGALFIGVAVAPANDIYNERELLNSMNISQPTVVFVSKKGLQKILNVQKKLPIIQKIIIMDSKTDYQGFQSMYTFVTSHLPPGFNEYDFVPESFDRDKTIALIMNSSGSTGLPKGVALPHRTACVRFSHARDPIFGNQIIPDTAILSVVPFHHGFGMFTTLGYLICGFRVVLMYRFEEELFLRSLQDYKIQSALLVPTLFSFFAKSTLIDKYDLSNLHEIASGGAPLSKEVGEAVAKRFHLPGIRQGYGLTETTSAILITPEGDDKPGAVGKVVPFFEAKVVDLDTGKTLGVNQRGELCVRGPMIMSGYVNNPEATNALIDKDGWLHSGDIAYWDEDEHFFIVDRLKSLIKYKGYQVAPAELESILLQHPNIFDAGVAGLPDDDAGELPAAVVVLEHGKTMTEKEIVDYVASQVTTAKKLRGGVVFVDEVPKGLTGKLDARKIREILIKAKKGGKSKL

SMILES | activity change, negative = inhibition | Potency
O=C(Cc1ccccc1)N1CCc2ccccc21 | inactive: -15.5% | –
COc1cc(/C=C2\C(=O)NN(c3ccccc3)C2=O)ccc1OCC(N)=O | – | active: 10.7 µM
COc1ccc(N2C(=O)CC(S/C(N)=N/N=C/c3ccnc4ccccc34)C2=O)cc1 (stereo unspecified) | – | inconclusive: 3.79 µM [inhibitor, partial curve, poor fit]
COc1ccc(-c2nc(-c3cccnc3)no2)cc1OC | – | active: 16.9 µM
CCOc1ccc(NC(=O)CSc2nccn2C)cc1 | – | inconclusive: 26.9 µM [inhibitor, single point]
O=C(/C=C/c1ccco1)Nc1ccc(Cl)c(S(=O)(=O)N2CCOCC2)c1 | – | active: 19 µM
CN(C(=O)CSc1nc(C2CC2)nc2ccccc12)c1nc(-c2ccccc2)cs1 | inactive: 1.2% | –
COc1ccc(-n2cnc3cc(C(=O)N4CCOCC4)ccc32)cc1 | – | inconclusive: 37.9 µM [inhibitor, partial curve, poor fit]
CCN1CCC[C@H]1CNC(=O)c1c(OC)ccc(Br)c1OC | inactive: -0.978% | –
Cc1nn(CC(=O)NCc2ccccc2Cl)c(=O)c2nn(-c3ccccc3)c(C)c12 | – | inconclusive: 37.9 µM [inhibitor, single point]
Cc1ccc(-n2[nH]c(C)c(C=Nc3ccc4[nH]c(=O)[nH]c4c3)c2=O)cc1C | – | inconclusive: 13.5 µM [inhibitor, partial curve]
CCC(=O)N1c2ccccc2NC2=C(C(=O)CC(c3ccco3)C2)C1c1ccco1 (stereo unspecified) | – | inconclusive: 37.9 µM [inhibitor, partial curve, poor fit]
Cc1nc(CC(=O)Nc2ccc(N(C)C)cc2)cs1 | inactive: -13.7% | –
CC(=O)c1ccc(C(=O)N2CCCC(N3CCN(c4ccc(F)cc4)CC3)C2)s1 (stereo unspecified) | inactive: -15.3% | –
O=C(O)c1ccc(S(=O)(=O)/N=C2\C=C(Nc3ccccc3F)C(=O)c3ccccc32)cc1 | – | inconclusive: 37.9 µM [inhibitor, partial curve, poor fit]
CCc1ccc(-n2nc(C)c3c(C(=O)Nc4cc(OC)cc(OC)c4)cc(C)nc32)cc1 | inactive: 2.33% | –
CCOc1ccc(-c2nc(SCC(=O)NCCOC)c(-c3ccc(OC)c(OC)c3)[nH]2)cc1 | inactive: -2.52% | –
COC(=O)c1sccc1NC(=O)c1cc(-c2ccc(C)cc2)nc2ccccc12 | – | inconclusive: 10.7 µM [inhibitor, partial curve]
Cc1ccc(OCC(=O)O/N=C(\N)c2cccnc2)cc1 | – | inconclusive: 37.9 µM [inhibitor, partial curve, poor fit]
CC(NC(=O)c1cc2cc(Cl)ccc2oc1=N)c1ccccc1 (stereo unspecified) | – | inconclusive: 19 µM [inhibitor, partial curve, poor fit]
Cc1cc(C)cc(OCC(=O)Nc2ccc(S(=O)(=O)Nc3onc(C)c3C)cc2)c1 | – | inconclusive: 26.9 µM [inhibitor, partial curve, poor fit]
Cc1ccc(C(=O)NCc2cccnc2)cc1S(=O)(=O)Nc1ccccc1 | inactive: -1.71% | –
O=C(Nc1nnc(SCc2ccc(F)cc2)s1)c1ccc2c(c1)C(=O)N(c1ccccc1Cl)C2=O | – | inconclusive: 23.9 µM [inhibitor, single point]
CC/C(=C\C1CCCCC1)C(NP(=O)(c1ccccc1)c1ccccc1)c1ccccc1 (stereo unspecified) | inactive: -16.1% | –

SMILES | activity change, negative = inhibition | Potency
Cc1cnc(C(=O)Nc2nnc(SCc3c(Cl)cccc3Cl)s2)cn1 | inactive: 1.15% | –
O=C(OCC(=O)N1CCN(c2ccccc2)CC1)c1ccccc1NCCO | inactive: -7.21% | –
c1ccc(-c2csc(Nc3ncccn3)n2)cc1 | – | active: 0.601 µM
Cc1ccc(C(=O)Nc2cccc(C(=O)OCc3cc(=O)n4c5c(sc4n3)CCCC5)c2)cc1 | – | inconclusive: 5.36 µM [inhibitor, partial curve]
C/C(=N\NC(=O)c1ccccc1C)c1cccnc1 | – | inconclusive: 19 µM [inhibitor, partial curve, poor fit]
Cc1ccc2[nH]cc(C(c3ccccc3)c3cccs3)c2c1 (stereo unspecified) | inactive: -8.62% | –
Cc1ccc(-c2nc(-c3nccc4ccccc34)oc2-c2ccccc2)cc1 | – | active: 3.01 µM
COc1cc(-c2nnn(CC(=O)N3CCOCC3)n2)cc(OC)c1OC | inactive: -1.82% | –
O=Cc1cccn1-c1nccc(-c2ccco2)n1 | – | inconclusive: 21.3 µM [inhibitor, partial curve, poor fit]
COc1cccc(OC)c1-c1nn2c(-c3ccco3)nnc2s1 | – | inconclusive: 21.3 µM [inhibitor, single point]
CNS(=O)(=O)c1cccc(C(=O)OCC(=O)c2cc(C)n(CC3CCCO3)c2C)c1 (stereo unspecified) | – | active: 1.35 µM
O=C(N/N=C/c1ccc([N+](=O)[O-])o1)c1cn(-c2ccccc2)nc1-c1ccc(F)cc1 | inactive: -9.76% | –
COc1cc(/C=C(\C#N)C(=O)NC2CCCCC2)ccc1OCc1ccc(C(=O)O)cc1 | – | inconclusive: 21.3 µM [inhibitor, partial curve, poor fit]
CCc1ccc(NC(=O)c2cc(C)no2)cc1 | – | active: 12 µM
CN(C)c1ccc(N=Nc2ccccc2C(=O)OCC(=O)N(C)c2ccccc2)cc1 | – | active: 1.35 µM
Cc1ccccc1NC(=O)c1ccccc1O | – | inconclusive: 26.9 µM [inhibitor, single point]
Fc1ccc(COc2cccc3cccnc23)cc1 | – | active: 16.9 µM
Cc1ccnc(SCc2cn3c(C)cc(C)nc3n2)n1 | inactive: 0.0235% | –
Cc1ccccc1C(=O)Nc1ccc(C(=O)N/N=C/c2ccc(O)cc2)cc1 | – | inconclusive: 26.9 µM [inhibitor, partial curve, poor fit]
C/C(=N\NC(=O)c1ccccc1)c1ccc(C)c([N+](=O)[O-])c1 | – | inconclusive: 30.1 µM [inhibitor, partial curve, poor fit]
O=S(=O)(CCc1ccncc1)C1Cc2cccc3cccc1c23 (stereo unspecified) | inactive: 3.2% | –
Cc1ccc(Cn2nnc3c(=O)[nH]c(C4CCN(S(=O)(=O)Cc5ccccc5)CC4)nc32)cc1 | – | inconclusive: 23.9 µM [inhibitor, partial curve, poor fit]
CCCCOc1ccc(CNC(=O)Cn2ncn3c(cc4cc(F)ccc43)c2=O)cc1 | inactive: -0.826% | –
COCCCN1C(=O)C(=O)/C(=C(/O)c2ccc(C)cc2)C1c1ccccc1 (stereo unspecified) | – | inconclusive: 23.9 µM [inhibitor, partial curve, poor fit]

SMILES | activity change, negative = inhibition | Potency
Cn1c(=O)c2sccc2n2c(CCCC(=O)Nc3ccc(F)cc3F)nnc12 | – | inactive
O=C(Nc1ccc(C(=O)N2CCOCC2)cc1)c1cc(-c2cccnc2)nc2ccc(Cl)cc12 | – | inconclusive: 37.9 µM [inhibitor, partial curve, poor fit]
COc1ccc(-n2c(C)cc(/C=C/c3nc(O)c([N+](=O)[O-])c(=O)[nH]3)c2C)cc1 | – | inconclusive: 21.3 µM [inhibitor, single point]
Cc1cc(NCCCN)nc(-c2ccccc2O)n1 | inactive: 0.887% | –
Cc1oncc1-c1csc(-c2ccccc2)n1 | – | inconclusive: 23.9 µM [inhibitor, single point]
CCc1ccc(-c2nc(CSCC(=O)NCCCN3CCCC3=O)c(C)o2)cc1 | – | inconclusive: 15.1 µM [inhibitor, partial curve]
CCn1c(CN2CCN(c3cccc(Cl)c3)CC2)nc2c1c(=O)[nH]c(=O)n2C | inactive: 2.27% | –
CCOc1ccc(OCCC(=O)OCC(=O)NNC(=O)c2ccccc2)cc1 | – | inconclusive: 30.1 µM [inhibitor, single point]
Cc1cc(N2CCCC2)ccc1/C=C1\NC(=S)N(C)C1=O | – | active: 13.5 µM
C=CCNC(=O)/C(C#N)=C/c1ccc2c(c1)OCCO2 | – | active: 12 µM
CC(=O)Nc1ccc(NC2=C/C(=N/S(=O)(=O)c3cccs3)c3ccccc3C2=O)cc1 | – | inconclusive: 21.3 µM [inhibitor, partial curve]
CN(C)c1ccc(C2C3C(=O)N(c4ccc(C(=O)O)cc4)C(=O)C3ON2c2ccccc2)cc1 (stereo unspecified) | – | inconclusive: 30.1 µM [inhibitor, partial curve, poor fit]
COc1ccc(C(=O)Nc2cccc(-c3csc(C)n3)c2)cc1S(=O)(=O)N1CCCC1 | – | inconclusive: 9.53 µM [inhibitor, partial curve]
CCc1ccc(NC(=O)CSC2=Nc3ccccc3C3=NC(CCC(=O)NCc4ccccc4OC)C(=O)N23)cc1 (stereo unspecified) | inactive: -11.3% | –
COc1ccc(C2C3=C(CCCC3=O)Nc3ccc4ncccc4c32)cc1OC (stereo unspecified) | – | inconclusive: 37.9 µM [inhibitor, single point]
Cc1ccc(-n2ncc3c(NNC(=O)c4cccs4)ncnc32)cc1 | – | inconclusive: 37.9 µM [inhibitor, partial curve, poor fit]
Cc1cccn2c(=O)c3cc(C(=O)N4CCCC(C)C4)sc3nc12 (stereo unspecified) | – | inconclusive: 26.9 µM [inhibitor, single point]
Cc1nn(-c2ccccc2)c(OC(=O)c2ccc(Br)cc2)c1S(=O)(=O)c1ccccc1 | – | inconclusive: 10.7 µM [inhibitor, partial curve]
O=C(CCc1nc(-c2ccccc2F)no1)Nc1cccc(C(F)(F)F)c1 | – | inconclusive: 19 µM [inhibitor, partial curve, poor fit]
O=C(CCCCCN1C(=O)c2cccc3cccc(c23)C1=O)NCc1cccnc1 | – | inconclusive: 12 µM [inhibitor, partial curve, poor fit]
CN(c1ccccc1)S(=O)(=O)c1cc(C(=O)NCCCn2ccnc2)ccc1Cl | inactive: 3.53% | –
COC(=O)c1ccc(NC(=O)C(=O)NCC2CCCO2)cc1 (stereo unspecified) | – | inconclusive: 16.9 µM [inhibitor, partial curve]
Cc1cccc(C(=O)Nc2ccc(-c3nc4ccccc4s3)c(C)c2)c1 | – | active: 2.69 µM
